Assay results from ChEMBL document CHEMBL1201862, “PubChem BioAssay data set” (2004).
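Method: 48-hour compound exposure of cells in 96-well plates, five concentrations, linear interpolation of endpoints. Abbreviation: GI50, concentration required for 50% inhibition of growth.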 The source made the active and inactive calls. Rule as the data show it: active = GI50 up to about 1.1 µM and inactive = higher.

Test system: NCI-H322M
Assay: growth of human tumour cells (NCI), 48 h

Question: Which GI50 does the source give for Cc1ccc2c(c1)Nc1ccccc1P2(=O)O here?
Answer: inactive: > 100 µM

Question: O=C(NCCCN(CCCCN(CCCNC(=O)C(F)(F)F)Cc1ccc2ccccc2c1)Cc1ccc2ccccc2c1)C(F)(F)F was tested. Which GI50 did it give?
Answer: inactive: 11.1 µM

Question: For S=C1/C(=N/c2ccccc2)N(C2CCCCC2)/C(=N\C2CCCCC2)N1c1ccccc1, which GI50 is on record?
Answer: inactive: > 100 µM

Question: O=[N+]([O-])c1ccc(Cl)cc1C1SCc2nc3ccccc3n21 (configuration not stated) was tested. Which GI50 did it give?
Answer: inactive: 28.6 µM

Question: Which GI50 does the source give for C=CC(=O)NCNC(=O)C=C here?
Answer: inactive: > 100 µM

Question: Which GI50 does the source give for COc1ccc(C[C@H](N)C(=O)N2C[C@H](CO)C[C@H](n3cnc4c(N(C)C)ncnc43)C2)cc1 here?
Answer: inactive: > 100 µM

Question: Cc1cc(Cl)ccc1NC(=O)CCCC(=O)C(C(=O)c1ccccc1)c1ccccc1 (configuration not stated) was tested. Which GI50 did it give?
Answer: inactive: > 100 µM

Question: With O=C(CN1CCN(Cc2ccccc2)CC1)N1CCCn2c1nc1ccccc1c2=O as the molecule, how does the GI50 read?
Answer: inactive: > 100 µM

Question: Which GI50 does the source give for Cn1c(=O)oc2cc(C(=S)N3CCC(Cc4ccccc4)CC3)ccc21 here?
Answer: inactive: > 100 µM

Question: How did the GI50 turn out when NCCNC(=O)c1cccc2cc3ccccc3nc12 was run?
Answer: inactive: 2.87 µM

Question: For CC(=O)c1sc(=N)n(-c2c(C)cccc2C)c1C, which GI50 is on record?
Answer: inactive: > 100 µM

Question: With CN(C)C(=S)N/N=C\C(=N/NC(=S)N(C)C)c1ccccc1 as the molecule, how does the GI50 read?
Answer: inactive: 4.38 µM

Question: With COc1ccc2c[n+](C)c3c4cc(OC)c(OC)cc4ccc3c2c1 as the molecule, how does the GI50 read?
Answer: inactive: 5.05 µM

Question: How did the GI50 turn out when CCCCCCCCCCCC(=O)C1=C(O)CCC(O)C1=O (configuration not stated) was run?
Answer: inactive: 24.3 µM

Question: For COC(=O)C1=C(O)c2ccc(Cl)cc2S(=O)(=O)N1C, which GI50 is on record?
Answer: inactive: > 100 µM

Question: Cc1cn([C@@H]2O[C@H](CO[Si](C)(C)C(C)(C)C)[C@]3(O[C@H]3C(=O)NO)[C@H]2O[Si](C)(C)C(C)(C)C)c(=O)[nH]c1=O was tested. Which GI50 did it give?
Answer: inactive: 1.72 µM

Question: CN1C(=O)C(O)CC1c1ccccc1F (configuration not stated) was tested. Which GI50 did it give?
Answer: inactive: > 100 µM

Question: Which GI50 does the source give for Cc1c(C2CCSc3ccccc3N2)sc2ccccc12 (configuration not stated) here?
Answer: inactive: > 100 µM

Question: Which GI50 does the source give for CC(C)(C)[Si](C)(C)OC1CCOC1(O)c1ccccn1 (configuration not stated) here?
Answer: inactive: > 100 µM

Question: For O=C(Cc1nc2ccc(C(=O)c3ccccc3)cc2nc1O)C(=O)Nc1ccc(C(F)(F)F)cc1[N+](=O)[O-], which GI50 is on record?
Answer: inactive: > 100 µM

Question: CCN(CC)CCSc1c2ccccc2nc2c(OC)ccc(OC)c12 was tested. Which GI50 did it give?
Answer: inactive: 22.1 µM

Question: CC1CCOc2ccc(cc2)/C=N\c2ccc(cc2)CCc2ccc(cc2)/N=C\c2ccc(cc2)OCC1 was tested. Which GI50 did it give?
Answer: inactive: > 100 µM

Question: COc1ccc(C(=O)Cc2ccc(Br)cc2)cc1OC was tested. Which GI50 did it give?
Answer: inactive: > 100 µM

Question: For NS(=O)(=O)c1cc2c(cc1Cl)N=C(CCC(=O)O)NS2(=O)=O, which GI50 is on record?
Answer: inactive: > 100 µM

Question: Which GI50 does the source give for Cc1ccc2c(c1)C(=O)/C(=C\c1ccc(Cl)cc1)CCS2(=O)=O here?
Answer: inactive: 4.99 µM

Question: How did the GI50 turn out when O=C(/C=C/c1ccc(C(F)(F)F)cc1)c1c([O-])on[n+]1-c1ccccc1 was run?
Answer: inactive: 9.77 µM

Question: How did the GI50 turn out when COP(=O)(OC)/C(=C\c1cn(C(c2ccccc2)(c2ccccc2)c2ccccc2)cn1)NC(C)=O was run?
Answer: inactive: > 100 µM

Question: How did the GI50 turn out when CCOC(=O)/C=C\C(C#N)(C#N)/N=C/c1ccsc1 was run?
Answer: inactive: 18.2 µM

Question: COC1=C(C(c2cc(OC)c(OC)c(OC)c2)c2cc3c(cc2OC)OCO3)C(=O)OC1 (configuration not stated) was tested. Which GI50 did it give?
Answer: inactive: > 55.1 µM

Question: How did the GI50 turn out when CC(C)c1cc(C(F)(F)F)nc(NNc2nc(C(C)C)cc(C(F)(F)F)n2)n1 was run?
Answer: inactive: 38 µM

Question: Which GI50 does the source give for CN(C)CCNc1nc2c(c(=O)n(C)c(=O)n2C)n1C here?
Answer: inactive: > 100 µM

Question: Which GI50 does the source give for O=C1C(Cl)=C(N2CCN(c3ccccn3)CC2)C(=O)c2ncccc21 here?
Answer: inactive: 12.3 µM

Question: Cc1cccc(/C=N/NC(=S)Nc2ccc(Cl)cc2)n1 was tested. Which GI50 did it give?
Answer: inactive: 5.43 µM

Question: For C/C=C/C=N/N(C(=O)c1cc([N+](=O)[O-])cc([N+](=O)[O-])c1)C1=NN=C(c2ccccc2)C(c2ccccc2)N1 (configuration not stated), which GI50 is on record?
Answer: inactive: > 100 µM

Question: O=[N+]([O-])c1cccc(-c2csc(N/N=C3\NC/C(=C/c4ccc5c(c4)OCO5)S3)n2)c1 was tested. Which GI50 did it give?
Answer: inactive: 40.6 µM

Question: How did the GI50 turn out when COC(=O)C(CCS(=O)(=O)CC(=O)C(=O)Nc1cccc(C(C)=O)c1)C(=O)OC was run?
Answer: inactive: > 100 µM

Question: Which GI50 does the source give for COC(=O)C1CC2c3c(c4ccccc4n3C)CC(C1=O)N2C (configuration not stated) here?
Answer: inactive: 84.3 µM

Question: For CC(=O)N1c2ccccc2C2=NN=C(N(C)C)SC21 (configuration not stated), which GI50 is on record?
Answer: inactive: 2.9 µM

Question: With O=C(O)Cc1ccc(Oc2nc3ccccc3nc2-c2ccccc2)cc1 as the molecule, how does the GI50 read?
Answer: inactive: > 100 µM

Question: With COC(=O)CSc1ccccc1 as the molecule, how does the GI50 read?
Answer: inactive: > 100 µM

Question: NNC(=O)c1c(-c2cccnc2)cnc2ccccc12 was tested. Which GI50 did it give?
Answer: inactive: > 100 µM

Question: With Cn1cnc([N+](=O)[O-])c1Sc1nc2ccccc2o1 as the molecule, how does the GI50 read?
Answer: inactive: 16.8 µM

Question: How did the GI50 turn out when CC1OC(OC2C(OC(=O)[C@]34CCC(C)(C)CC3C3=CCC5[C@@]6(C)C[C@H](O)[C@H](OC7OC(CO)C(O)C(O)C7N)[C@@](C)(C(=O)O)C6CC[C@@]5(C)C3(C)CC4)OCC(O)C2O)C(O)C(O)C1OC1OCC(O)C(O)C1O (some centres not stated) was run?
Answer: inactive: > 100 µM

Question: For O=C1c2ccccc2C(=O)c2c(NC(=O)C(Cl)CCl)cccc21 (configuration not stated), which GI50 is on record?
Answer: inactive: 17.5 µM

Question: C/C(=N\Nc1nc2ccccc2n1C)c1ccncn1 was tested. Which GI50 did it give?
Answer: active: 0.191 µM

Question: For COC(=O)c1cc(CC2Cc3cc4c(cc3C2)CCC4)cc2c1CCC2, which GI50 is on record?
Answer: inactive: 83.2 µM

Question: Which GI50 does the source give for N#CC(C(=O)/C(=N/Nc1nc(S)nn1N)C(C#N)c1ccccc1)c1ccccc1 (configuration not stated) here?
Answer: inactive: > 100 µM
